Test results taken from PubChem BioAssay AID686978 (National Center for Advancing Translational Sciences (NCATS), 2013).
“And” between values parts separate entries of the source, which are not always exact repeats. Identical values can stand only once. Among all 420,000 compounds or so, about 64,000 (15%) were called active. This list was built around the results that the source calls inconclusive (neither active nor inactive); the mix of calls is not that of the screen. The call rests on the fitted dose curve; in most records, active means well fitted inhibition curve with a large enough effect; inconclusive means small, poorly fitted or top-dose-only effect; inactive means flat fitted curve, though single readings scatter. Where the call is inconclusive, the potency comes from a doubtful curve fit.

Test: qHTS for Inhibitors of human tyrosyl-DNA phosphodiesterase 1 (TDP1): qHTS in cells in absence of CPT; further: nearly all actives have a fitted effect of over 55% in size
Settings: DT40 Tdp1-/- hTDP1 cells, no CPT, ATP luminescence, 48 h; activity change, negative = growth inhibition: at 46.2 µM (top of the series) unless noted
Summary of the method: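 Growth kinetics read by CellTiter-Glo luminescence after ≥48 hr at 37 °C. Cells: DT40 Tdp1-/- stably carrying human TDP1, 400 per well, compound exposure in the absence of CPT (DMSO vehicle).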
On the % scale 0 is the no-effect control and ±100 the full control effect; potency means the concentration at half of the fitted maximal effect; tags describe the fitted curve by direction and shape.

Structure (SMILES) | Potency | activity change, negative = growth inhibition
COc1cccc(/C=C(/C(=O)OCC(=O)NC2CCCCCCC2)c2ccccc2)c1 | inconclusive: 23.1 µM [inhibitor, single point] | –
CCOc1ccc(NC(=O)CSc2nnc3scc(-c4ccccc4)n23)cc1 | inconclusive: 9.2 µM [inhibitor, partial curve, poor fit] | –
Clc1ccc2c(SCC3CO3)c3ccccc3nc2c1 (stereo unspecified) | active: 1.16 µM | –
CCOC(=O)C1CCCN(C(=O)/C=C/c2cc(OC)c(OC)c(OC)c2)C1 (stereo unspecified) | inconclusive: 29.1 µM [inhibitor, single point] | –
CC(=O)N1c2ccc(S(=O)(=O)NCCC(=O)Nc3ccc(OC(F)(F)F)cc3)cc2CC1C (stereo unspecified) | inconclusive: 29.1 µM [inhibitor, single point] | –
CCCCOc1ccc(C(=O)NCC(=O)NCC(c2ccc(OC)cc2)N2CCOCC2)cc1 (stereo unspecified) | inconclusive: 29.1 µM [inhibitor, single point] | –
CCCCNC(=S)N(C)/N=C/c1ccc(OCc2ccc(C(=O)OC)cc2)c(OC)c1 | active: 14.6 µM | –
COc1ccc(N(CC(=O)NCCSc2ccccn2)S(=O)(=O)c2ccccc2)cc1OC | inconclusive: 20.6 µM [inhibitor, single point] | –
CN1CCC(N2CCN(c3cccc(C(F)(F)F)c3)CC2)CC1 | inconclusive: 10.3 µM [inhibitor, partial curve] | –
O=C(Nc1nccs1)[C@@H]1CCCN1S(=O)(=O)c1ccc(Cl)cc1 | inconclusive: 29.1 µM [inhibitor, single point] | –
Cc1c(N2C(=O)/C(=C3/C(=O)N(C)c4ccccc43)SC2=S)c(=O)n(-c2ccccc2)n1C | – | inconclusive: -30.2% [inhibitor]
Cn1c(-c2cccc(Br)c2)cnc1NCc1ccccc1O | inconclusive: 25.9 µM [inhibitor, single point] | –
CN1CCN(CC(=O)Nc2nc(-c3c[nH]c4ccccc34)cs2)CC1 | inconclusive: 29.1 µM [inhibitor, single point] | –
C=CCn1c(Cc2cccs2)nnc1SC/C=C/c1ccccc1 | inconclusive: 35.5 µM [inhibitor, single point] | –
CCc1c(C2(O)CCCCC2)[nH]c2ccc(C#N)cc12 | inconclusive: 18.4 µM [inhibitor, single point] | –
COc1cccc(C(C(=O)NCC2CCCO2)N(C(=O)Cn2nnc3ccccc32)c2ccc(NC(C)=O)cc2)c1 (stereo unspecified) | inactive | –
Cc1cc(Cl)c(S(=O)(=O)Nc2ccon2)cc1OCC(=O)NC1CCCCC1 | inactive | –
Cc1cccc(OCCC(=O)Nc2ccc(C)c(S(=O)(=O)N3CCCCC3)c2)c1 | active: 20.6 µM | –
CN(CCOc1ccccc1)C(=O)c1cc(S(=O)(=O)N2CCCCC2)ccc1Cl | inconclusive: 20.6 µM [inhibitor, partial curve] | –
CCOc1ccc(-n2c(C)c(C(C)=O)c3cc(O)ccc32)cc1 | inconclusive: 1.84 µM [inhibitor, full curve, poor fit] | –
COC(=O)c1ccc(Cn2nnc3ccccc32)cc1 | inconclusive: 13 µM [inhibitor, partial curve] | –
CN(C)c1ccc(C(O)c2cc3ccccc3s2)cc1 (stereo unspecified) | inconclusive: 16.4 µM [inhibitor, single point] | –
CC(C)CC(=O)NC(NC(=O)CC(C)C)c1cccc([N+](=O)[O-])c1 | inactive | –
Cc1cc(C)cc(OCC(=O)OCC(=O)Nc2ccc(Cl)cn2)c1 | inconclusive: 4.11 µM [inhibitor, full curve] | –

Structure (SMILES) | Potency | activity change, negative = growth inhibition
O=c1c2cccnc2[nH]c(=S)n1CCCN1CCN(c2ccc(F)cc2)CC1 | inconclusive: 16.4 µM [inhibitor, single point] | –
N#Cc1nc(Cc2ccccc2)oc1N1CCN(c2ccccc2)CC1 | inconclusive: 23.1 µM [inhibitor, single point] | –
COc1ccc(C(C)=O)cc1COC(=O)Cc1n[nH]c(=O)c2ccccc12 | inconclusive: 29.1 µM [inhibitor, single point] | –
O=C(NCc1cc(C(F)(F)F)cc(C(F)(F)F)c1)C1CC(c2cccc([N+](=O)[O-])c2)=NO1 (stereo unspecified) | inconclusive: 14.6 µM [inhibitor, partial curve, poor fit] | –
S=c1[nH]nc(C2CCCCC2)n1/N=C/c1ccc(Br)cc1 | inconclusive: 29.1 µM [inhibitor, single point] | –
Cc1ccc(NC(=O)c2ccn(C(=O)Nc3ccccc3)n2)c(C)c1 | inactive | –
CCc1ccccc1NC(=O)c1cc(-c2ccc(Cl)s2)nc2ccccc12 | inconclusive: 23.1 µM [inhibitor, single point] | –
COC(=O)c1ccc(NC(=O)CO/N=C2\CCCc3nonc32)cc1 | inconclusive: 18.4 µM [inhibitor, single point] | –
O=C1CC[C@@H](C(=O)O)N1 | inactive | –
Cc1oc(-c2ccccc2F)nc1Cn1c(SCc2cccc(C(F)(F)F)c2)nc2ccncc21 | inconclusive: 16.4 µM [inhibitor, single point] | –
CCOc1ccc2nc(N3CCCC(C(=O)NCCCN4CCOCC4)C3)sc2c1 (stereo unspecified) | inconclusive: 29.1 µM [inhibitor, single point] | –
O=C(Nc1ccccc1F)c1cnc(N2CCCCC2)c2ccccc12 | active: 23.1 µM | –
Cc1nc2nc3c(cn2n1)C(=O)CCC3 | inactive | –
O=[N+]([O-])c1ccc(/C=C/c2ccc3cccc(O)c3n2)cc1 | active: 16.4 µM | –
COc1ccc(N2CCN(c3ncnc4scc(-c5ccccc5)c34)CC2)cc1 | active: 16.4 µM | –
Cc1cc2c(cc1S(=O)(=O)Nc1ccc(C(C)C)cc1)OCCN2C | active: 16.4 µM | –
Cc1cccc(NC(=O)CCCSc2nc3ccccc3[nH]2)c1 | inconclusive: 29.1 µM [inhibitor, single point] | –
COc1nnc(-c2ccc(C)c(S(=O)(=O)N(C)C)c2)c2ccccc12 | inconclusive: 25.9 µM [inhibitor, single point] | –
Cc1ccc2c(C)c(C(=O)NCC3CCOCC3)oc2c1C | inconclusive: 29.1 µM [inhibitor, single point] | –
Cc1ccccc1OC(C)C(=O)N1CCC(Cc2ccccc2)CC1 (stereo unspecified) | inconclusive: 14.6 µM [inhibitor, partial curve] | –
N#Cc1ccc(CN2CC3(CCN(C(=O)c4cnccn4)CC3)C2)cc1 | inactive | –
Cc1ccc(C(c2nnnn2C(C)(C)C)N2CCC(C)CC2)cc1 (stereo unspecified) | inconclusive: 16.4 µM [inhibitor, single point] | –
Cc1ccc(C(C)C)c(OCC(=O)Nc2cc(-c3nc4ccccc4[nH]3)ccc2C)c1 | active: 3.66 µM | –
Cc1cccc(-n2cnc3cc(C(=O)NCc4ccccc4Cl)ccc32)c1 | inconclusive: 29.1 µM [inhibitor, single point] | –

Structure (SMILES) | Potency | activity change, negative = growth inhibition
CCOC(=O)C1CCN(C(=O)Nc2ccc3nc(C)c(C)nc3c2)CC1 | inconclusive: 29.1 µM [inhibitor, single point] | –
CC(C)C(=O)NCCc1nc2ccccc2n1CCc1ccccc1 | active: 20.6 µM | –
CNS(=O)(=O)c1cccc(C(=O)OCc2csc(-c3ccccc3)n2)c1 | inconclusive: 29.1 µM [inhibitor, single point] | –
O=C(COC(=O)COc1cccc(F)c1)NCC1CCCCC1 | inactive | –
O=C(CNC(=O)c1cccs1)Nc1ccc2c(c1)OCCO2 | inactive | –
COc1ccc(C2c3c(ncn(Cc4ccco4)c3=N)Oc3ccc4ccccc4c32)cc1 (stereo unspecified) | active: 16.4 µM | –
COc1ccc(-c2cc(NC=O)c3ncc(-c4cnn(C)c4)n3c2)cc1 | inconclusive: 23.1 µM [inhibitor, single point] | –
COc1ccccc1NC(=O)c1cc2c(=O)n(Cc3cccs3)ccc2nc1C | active: 23.1 µM | –
CCCOc1ccc(C2C(C#N)=C(N)Oc3nc[nH]c(=O)c32)cc1OC (stereo unspecified) | inactive | –
Cn1ncc(Br)c1NC(=O)CSc1ccc(Cl)cc1 | inconclusive: 20.6 µM [inhibitor, single point] | –
O=C(CN1CCN(c2ccc(F)cc2)CC1)Nc1ccccc1[N+](=O)[O-] | inconclusive: 10.3 µM [inhibitor, partial curve] | –
Cc1ccc(C(=O)Nc2ccccn2)cc1S(=O)(=O)N1CCOCC1 | inactive | –
CC(=O)NCCNC(=O)c1ccc(-n2c(C)ccc2C)cc1 | inactive | –
CC(C)N=c1scc(-c2cccs2)n1/N=C/c1ccc(O)c(O)c1O | active: 13 µM | –
CCc1ccc(-n2ccc(=O)c(C(=O)O)n2)cc1 | inconclusive: 0.92 µM [inhibitor, partial curve] | –
CCC(=O)Nc1cccc(NC(=S)NC(=O)c2ccc(Cl)cc2Cl)c1 | inconclusive: 14.6 µM [inhibitor, partial curve] | –
c1ccc(C(c2ccccc2)N2CCN(c3nc4ccccc4n4cnnc34)CC2)cc1 | active: 3.66 µM | –
COc1ccc(/C=N/NC(=O)c2csc(-n3nc(C)cc3C(F)(F)F)n2)cc1 | active: 20.6 µM | –
COc1ccc(O)c(C(=O)c2cnc3nc4ccccc4n3c2)c1 | active: 20.6 µM | –
COc1cccc(-c2nc(CS(=O)(=O)CC(=O)Nc3cccc(C(C)=O)c3)c(C)o2)c1 | inactive and inconclusive: 18.4 µM [inhibitor, single point] | –
COc1ccccc1-c1cn[nH]c1-c1ccc(OCc2ccccc2F)cc1O | active: 14.6 µM | –
O=C1C2C3C=CC(c4ccccc4)(C2C(=O)N1c1cccc(Cl)c1)C1C(=O)N(c2cccc(Cl)c2)C(=O)C31 (stereo unspecified) | active: 14.6 µM | –
CCOC(=O)C1CCN(C(=O)C2CCN(S(=O)(=O)c3c(C)noc3C)CC2)CC1 | inactive | –
